Laboratory results as given in PubChem BioAssay AID2675 (National Center for Advancing Translational Sciences (NCATS), 2010).
In all, about 280,000 compounds went through this assay and about 100 (0.036%) were called active. The shares of active, inactive and inconclusive entries below differ from those in the screen. Calls come from the whole dose curve; as a rule, active = well fitted inhibition curve with a large enough effect in the signal ratio, with a control signal flat (not every such curve was filed as active); inconclusive = small, poorly fitted or top-dose-only effect, or effect the other way, or a change in a side signal; inactive = no such curve, though single readings can be large or run the other way; the % refers to the signal ratio. A potency beside an inconclusive call is a rough fit, not a confirmed value. A note “side channel” means that the fit belongs to a control or component signal, not to the main read-out.

Each compound was assayed against Muscleblind-like protein 1 (Homo sapiens) (UniProt Q9NR56) (assay: qHTS Assay for Inhibitors of MBNL1-poly(CUG) RNA binding). Conditions: TR-FRET MBNL1-His/biotin-(CUG)12 binding, 665/545 ratio; activity change, negative = inhibition: at 57.5 µM (top of the series).
Sequence of UniProt Q9NR56 (Q9NR56 whole entry, looked up): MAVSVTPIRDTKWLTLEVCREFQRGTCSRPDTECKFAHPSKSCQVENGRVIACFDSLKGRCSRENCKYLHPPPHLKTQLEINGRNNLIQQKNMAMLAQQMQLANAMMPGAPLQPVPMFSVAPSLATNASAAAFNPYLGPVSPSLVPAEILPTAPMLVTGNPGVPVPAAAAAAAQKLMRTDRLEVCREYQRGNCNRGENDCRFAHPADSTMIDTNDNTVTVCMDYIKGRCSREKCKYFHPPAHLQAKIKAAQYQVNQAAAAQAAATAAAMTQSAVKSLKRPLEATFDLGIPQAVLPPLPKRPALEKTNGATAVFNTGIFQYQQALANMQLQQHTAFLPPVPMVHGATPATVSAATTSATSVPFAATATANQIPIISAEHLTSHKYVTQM
Method in brief: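 Inhibition of protein-RNA binding appears as loss of TR-FRET between terbium anti-His antibody on MBNL1-His and streptavidin-XL665 on biotin-(CUG)12. Activity is normalized to buffer-only and uninhibited-complex controls.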
% is set by controls: 0 for no effect and ±100 for the full control effect; potency is the fitted concentration of half-maximal effect; tags give direction and shape of the fitted curve or compound fluorescence and quenching.

Compound	Potency	activity change, negative = inhibition
CCN(CC)S(=O)(=O)c1cccc(N=Nc2sc(N)nc2C)c1	inconclusive: 11.2 µM [quencher, side channel, partial curve]	–
N/C(=N\OC(=O)Cc1ccc(Cl)cc1)c1ccccn1	–	inactive: 0.907%
COC(=O)c1ccc(/C=N/NC(=O)c2ccccc2Cl)cc1	inconclusive: 1.12 µM [quencher, side channel, full curve, poor fit]	–
CS(=O)(=O)c1ccc2nc(NC(=O)c3ccc(Cn4cc(Br)cn4)o3)sc2c1	–	inactive: 1.18%
Cc1ccc(-n2c(Cl)c(Cl)nc(Cl)c2=O)cc1	inconclusive: 39.8 µM [quencher, side channel, single point]	–
O=C(CSc1nc2ccccc2n1-c1ccccc1)Nc1ncc(Cl)cc1Cl	inconclusive: 0.1 µM [fluorescent, side channel, full curve]	–
CC(=O)Nc1ccc(S(=O)(=O)NNc2ccc([N+](=O)[O-])cc2)cc1	inconclusive: 14.1 µM [quencher, side channel, partial curve]	–
O=C1N=c2ccccc2=C1c1sc(=O)[nH]c1O	inconclusive: 14.1 µM [quencher, side channel, partial curve]	–
CC(/C=C/c1ccc(N(C)C)cc1)=N\N=C(/N)SC1CC(=O)N(c2ccc(C(=O)O)cc2)C1=O (stereo unspecified)	inconclusive: 22.4 µM [fluorescent, side channel, partial curve, poor fit]	–
Nc1cc2ccncc2c2ccccc12	inconclusive: 15.8 µM [quencher, side channel, partial curve]	–
Cc1ccc(N2C(=O)N(CC(=O)Nc3ccc([N+](=O)[O-])cc3)C(=O)C2C)cc1 (stereo unspecified)	inconclusive: 20 µM [quencher, partial curve]	–
CCCCCC1C/C(=N\O)C=C(C)C1C(=O)OC (stereo unspecified)	–	inactive: 8.17%
CCn1cc(C(=O)OCC(=O)N2C(C)CCCC2C)c(=O)c2ccc(C)nc21 (stereo unspecified)	–	inactive: 1.48%
COc1ccc(NC(=O)/C=C/c2cccc(C(F)(F)F)c2)cn1	inconclusive: 35.5 µM [quencher, side channel, single point]	–
COc1cc(CC(=O)OCc2cccc([N+](=O)[O-])c2)cc(OC)c1OC	inconclusive: 15.8 µM [quencher, side channel, partial curve]	–
CC[n+]1ccccc1/C=C1\Sc2ccc(C)cc2N1C	inconclusive: 3.55 µM [quencher, side channel, full curve]	–
O=c1c2ccccc2c(-c2n[nH]c(=S)o2)nn1Cc1ccccc1	inconclusive: 39.8 µM [quencher, single point]	–
CC(=O)Nc1cccc(Oc2ncnc3scc(-c4ccc(C(C)C)cc4)c23)c1	–	inactive: 0.661%
OCC1(CCOc2ccccc2)CCN(Cc2ccncc2)CC1	–	inactive: 8.13%
O=C(/C=C/c1ccccc1)N1CCN(Cc2nc3ccccc3c(=O)[nH]2)CC1	inconclusive: 12.6 µM [quencher, side channel, partial curve, poor fit]	–
CCOC(=O)COc1cc2c(C(=O)OCC)c(C)oc2cc1Br	inconclusive: 39.8 µM [fluorescent, single point]	–

Compound	Potency	activity change, negative = inhibition
Cc1ccc(C(=O)NNC(=O)c2ccc(SCC3CCCO3)c([N+](=O)[O-])c2)cc1 (stereo unspecified)	inconclusive: 7.08 µM [quencher, partial curve]	–
Cc1ccc2nsnc2c1NC(=O)COc1ccccc1	inconclusive: 17.8 µM [quencher, side channel, partial curve]	–
Cc1ccc2nc(C)c(C(=O)N/N=C/c3ccc(N4CCOCC4)cc3)cc2c1	inconclusive: 39.8 µM [quencher, side channel, single point]	–
O=C(NCCCN1CCOCC1)c1cc(Cl)ccc1[N+](=O)[O-]	inconclusive: 39.8 µM [quencher, single point]	–
C/C(CC(=O)Nc1cccnc1)=N\NC(=O)c1ccc([N+](=O)[O-])c(Cl)c1	inconclusive: 15.8 µM [quencher, side channel, partial curve]	–
Cn1cc([N+](=O)[O-])c(C(=O)Nc2cc(Oc3cccnc3)cc([N+](=O)[O-])c2)n1	inconclusive: 11.2 µM [quencher, side channel, partial curve]	–
Cc1nn(-c2cc(N3CCNCC3)ccc2[N+](=O)[O-])c(=O)c2ccccc12	inconclusive: 12.6 µM [quencher, partial curve]	–
O=C(Nc1c2c(nc3ccccc13)CCCC2)c1cccc([N+](=O)[O-])c1	inconclusive: 20 µM [quencher, side channel, partial curve]	–
CCC(=O)NC(=S)Nc1cccc(NC(=O)c2ccccc2Cl)c1	–	inactive: -1.52%
COc1cc(NC(=S)NC2CC2)c(OC)cc1Cl	–	inactive: 0.169%
Cc1cc(/C=N/NC(=O)c2cccc(N(C)C)c2)c(C)n1-c1cc(C(=O)O)cc(C(=O)O)c1	–	inactive: -8.53%
CC(C)(C)c1ccc2c(c1)OC(C(=O)N/N=C\c1ccc[nH]1)CO2 (stereo unspecified)	–	inactive: 4.96%
NNc1nc(Nc2ccc([N+](=O)[O-])cc2)nc(N2CCCCCC2)n1	–	inactive: 14.3%
O=C1N=C(N2CCc3ccccc3C2)S/C1=C\c1ccc(O)cc1	inconclusive: 31.6 µM [quencher, single point]	–
COc1ccc2cc(C(=O)C3CCCN(Cc4cnc(N5CCOCC5)s4)C3)ccc2c1 (stereo unspecified)	–	inactive: 8.19%
CCOC(=O)CC(=O)CSc1nnc2c(n1)[nH]c1ccccc12	inconclusive: 12.6 µM [quencher, side channel, partial curve]	–
Cc1c(C(=O)N2CCCC2)sc(NC(=O)c2ccco2)c1C#N	inconclusive: 126 µM [inhibitor, single point]	–
CCOc1cc(C(=O)NCc2ccc(-c3nc4ccccc4o3)cc2)cc(OCC)c1OCC	–	inactive: -8.88%
COC(=O)CCC(=O)Nc1sc(C)c(C)c1C(N)=O	–	inactive: 4.92%
CCN(CC(=O)NC(C)(C)C)C(=O)c1ccc2c(c1)S(=O)(=O)c1ccccc1C2=O	inconclusive: 12.6 µM [quencher, side channel, partial curve]	–
